Laboratory results taken from patent US20140378657A1.

Target: 59-amino acid synthetic peptide comprising the full length SBP tag
Assay: SPR (BIAcoreX), SBP peptide thiol-coupled to the chip

Sequence of 59-amino acid synthetic peptide comprising the full length SBP tag (peptide, as listed by the source): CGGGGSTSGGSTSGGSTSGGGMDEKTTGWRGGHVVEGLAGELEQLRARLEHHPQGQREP

Kd: 7.67 nM
koff: 0.000821 s⁻¹
kon: 107000 M⁻¹ s⁻¹
Substance: streptavidin mutein SBPM18 (S27A, G48T) (no sequence given) (designed binder)
